The full ranking holds about 33,000 sequences; the median of “E-score (-0.5 to 0.5)” is about -0.035, and the highest 2% start at about 0.34. The list shows a part of the results.
Biological target: T1, Mot3 (UniProt P54785)
T1 sequence: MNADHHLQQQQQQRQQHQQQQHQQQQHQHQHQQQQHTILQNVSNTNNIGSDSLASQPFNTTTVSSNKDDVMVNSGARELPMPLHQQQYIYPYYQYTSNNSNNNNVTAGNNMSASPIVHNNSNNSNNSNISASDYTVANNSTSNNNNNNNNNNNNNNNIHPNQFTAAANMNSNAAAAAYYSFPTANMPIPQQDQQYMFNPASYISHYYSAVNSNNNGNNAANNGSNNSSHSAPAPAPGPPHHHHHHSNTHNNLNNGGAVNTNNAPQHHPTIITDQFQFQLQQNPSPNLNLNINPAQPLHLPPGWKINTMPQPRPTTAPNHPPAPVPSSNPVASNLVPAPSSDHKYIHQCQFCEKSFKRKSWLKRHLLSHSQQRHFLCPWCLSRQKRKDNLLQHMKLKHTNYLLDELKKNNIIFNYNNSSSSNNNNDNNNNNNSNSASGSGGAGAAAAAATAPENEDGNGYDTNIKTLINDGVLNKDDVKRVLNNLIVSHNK
Assay: PBM E-score (8-mer binding enrichment) (E-score (-0.5 to 0.5)); higher = stronger / more preferred TF binding; most listed sequences are background and not binding sites
Conditions: protein concentration: 200 nM; construct: GST-full length
In short: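 E-scores (a modified Wilcoxon-Mann-Whitney statistic) were assigned by the Universal PBM Analysis Suite to every ungapped eight-base word pooled with its reverse complement. The input came from universal all-10-mer Agilent arrays made double-stranded by primer extension and probed with GST-tagged yeast transcription factors at about 100-200 nM. Fluorescent anti-GST detected bound protein, and masliner normalised the scans.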

Sequence | PBM E-score
CATCTTCA | -0.192
CTCTCGCA | -0.279
CCCAAGAC | -0.241
AACTGAAA | 0.0669
CCTTAGCA | -0.0537
AGAACTGA | 0.0206
GCGATACC | -0.355
ATCGACGC | 0.0479
TCTGGCCA | -0.0337
ATGGGGCG | -0.0949
ATTTAGTA | 0.054
GGATTAAA | 0.0348
GCGGTTGA | 0.0516
GGCCAGAC | -0.148
GGCCAACC | -0.186
TATACGAA | 0.0446
AATTCCAC | -0.164
AATGATAA | 0.138
ACACTCCT | 0.0589
GAGCGCGC | -0.282
GGACCCCC | -0.351
CACGTTGC | 0.158
AGGGAGTA | -0.0149
AAGTTCAT | -0.132
ACTTGCAC | -0.00643

Sequence | PBM E-score
AGACCACC | -2e-05
AGGCGGCC | -0.289
AGGTCGAC | 0.0953
ACTGGCAA | -0.0839
ACCGTAAA | 0.105
AAATGTGG | 0.0308
GCGCAAAA | 0.0303
AAACGTAT | 0.172
ACGAGCCC | -0.15
GCAGAATA | -0.106
CAACTCAC | 0.0213
ATACGGGC | 0.00415
CAGTCTGG | -0.104
TGAACAAA | 0.236
AGGATATG | -0.0878
ATTCTATG | 0.154
ATACCGAA | 0.0362
CCCCTGAA | -0.084
ATGTATGG | 0.111
AGACCCCC | -0.0704
ATCTATTA | 0.126
ACGCACTA | 0.0546
AGCGCGGA | -0.208
CTTTGCCC | -0.103
AGCACGAT | -0.122

Sequence | PBM E-score
CCTTCAAG | 0.351
AAGGGTAG | -0.155
GCTAGTTA | 0.0186
CATCCAAG | -0.0299
AGTATCTG | -0.14
ACTGTTGA | 0.0174
ATAGTAGA | -0.0168
ACGATGCA | -0.11
GAGGTATA | -0.0563
TATATGAA | 0.122
CCGCCTTA | -0.0792
CCGCACGG | -0.185
ACAATGCA | 0.296
CAGGTTGG | -0.194
CGAAAGCC | -0.148
CGTGGTTA | 0.0287
ATGTTCAA | 0.148
AGATTCCA | -0.0136
AAGACACG | 0.262
AGTCCGTC | -0.0872
AAGTTCCT | 0.341
AGTACTAA | 0.0884
GATGTTCC | 0.0955
ACAGCTCC | -0.142
ATTCGTAC | 0.117

Sequence | PBM E-score
AAGAGATA | -0.0912
TACAATCA | 0.294
AAATGTAG | 0.151
ATCGCAAA | -0.0857
GAGCACTA | -0.093
GCGCTGGA | -0.242
TATTGCCA | -0.0535
CGAAGTCA | -0.114
ATTCGCTC | -0.202
GCTAATCA | -0.005
AAGATGGA | -0.247
GCTGCCCA | -0.293
AGCGTTGG | -0.0923
GATCAGGC | 0.241
ATTGAGTG | -0.0778
TCCAAGGA | -0.0839
AGTCTAGA | -0.269
AATCTTGT | 0.17
GTCGCAGA | -0.289
ACCCTCCC | -0.276
CCATTTGA | -0.224
CGTGCTAA | 0.158
GATCGACA | 0.048
ACGTCAAC | 0.0709
AACGAAGG | 0.115

Sequence | PBM E-score
CTTCAGTC | 0.0179
TCTTCGCA | 0.071
TACTCCAA | -0.0209
ATACATCA | 0.16
AAACGGCA | 0.139
ACTAGCGA | -0.0915
GTCTTCAA | -0.0786
CCTTCAGC | 0.0304
CCGCGGAG | -0.26
CAGACATA | 0.182
CGCGTAGC | 0.159
CCCTACGG | -0.0611
GATCACGA | -0.167
ATACTCGC | -0.121
CTAGAATA | 0.016
GACACTAC | 0.0334
CAGAGGTA | 0.128
GATGCCGC | -0.202
GGATCCAC | -0.191
GGGCTCAA | -0.193
AATTCGCA | -0.14
CTAACACC | 0.0726
CGAGCTCG | -0.245
GGCGTAGA | 0.0509
AAGTGGCA | -0.205

Sequence | PBM E-score
GATGCCCC | -0.345
AGCCCCGC | -0.0269
GTTAAACA | 0.256
CGCTAATA | 0.0369
ATTGACCA | -0.00092
TCGCAACA | 0.122
CTGCCTCA | -0.15
GATTAGCA | -0.0223
ACTACCGG | -0.139
GCAATGGA | -0.00402
CTGGGGCC | -0.282
AAACAAGT | 0.151
GCAATTCC | -0.0291
ACCACATC | -0.0145
ATGTTGAG | 0.292
AACTTTGG | -0.117
AACAGGTG | 0.229
ACAATACC | 0.172
GGGGTACA | 0.00623
CCTCAGAC | -0.246
CCAAATCG | -0.102
CTGACCAA | 0.0349
AGCAACCT | 0.0912
GGGGAACC | -0.0132
TGGTCACA | -0.0395

Sequence | PBM E-score
ACCTGACG | -0.0619
ACCGGGTG | -0.0881
ACCGTGAT | -0.138
GCACCCCC | -0.0681
CTCTCGTA | -0.108
ACCACGTC | -0.168
AGCAGTAC | 0.0283
TAAATTAA | 0.215
ATGTGAAC | 0.132
AGCGCTTA | -0.0175
ACGACAAC | 0.146
ATCTAGCA | 0.0225
GGCGCTTA | -0.14
ATATTAAT | 0.072
CCTTGATA | 0.108
ATTGCACC | 0.171
ACGTCCCT | 0.0654
ACGATAAA | 0.0953
ATATCTGC | -0.149
CTCAAACA | 0.176
TAGGCCCA | 0.0261
ACTGCCCG | -0.127
GTTGACTA | -0.0493
ACATGTAA | 0.437
AACTCTCT | -0.19

Sequence | PBM E-score
GCCTTGGA | 0.018
AGAGGCTG | -0.18
AAAGTAGG | 0.226
CTAAAGAA | 0.192
ACCGCGGG | -0.0782
AACGCTTC | 0.0166
AACCACCA | 0.0159
ATGAAAAG | -0.044
CTCTAGAC | -0.0965
ACATACTA | 0.188
AGCCGCAT | -0.0444
ACTGCTTA | 0.0258
CACCATTA | 0.0595
AGAGCCAG | -0.0378
ACCACAGA | -0.0586
AAATCGTC | -0.143
ATATGACG | 0.0195
CATCTCGG | -0.266
TAGTTGCA | -0.0803
GATATTTA | 0.145
CGTCAACC | -0.0141
CTGTTATC | 0.0617
ACGCTGGA | -0.0979
CAGGGAGG | -0.165
CCACGACA | -0.222

Sequence | PBM E-score
GGAGAATA | 0.0174
ACCTCATG | -0.175
GCCGCAGC | -0.289
ACCGTAGC | -0.129
GTAATTAC | 0.378
GTGTCCAA | 0.0604
GTTTTAAA | 0.139
GCGGGTGA | -0.126
CAGAAGCG | -0.219
CGTGCGGC | -0.342
CCGCTTCG | -0.234
AACAAGCA | 0.206
CGGTTGGA | -0.154
AGTATCAA | -0.0205
TATGTAAA | 0.434
ATCATCAG | 0.00601
CCGGCGCG | -0.153
ATTGAAAT | 0.0839
AGATGGTG | -0.0242

Reference: the supplement of paper PMC3334620
